Assay results: PubChem BioAssay (NCATS)
Inconclusive results, whose numbers are uncertain, are shown with a selection of clear calls. For some of these results: Potencies beside an inconclusive call are fits to weak or partial responses and may not hold up. The source made the active and inactive calls. Unless noted, the call rests on the fitted dose curve; in most records, active means well fitted curve in the direction sought with a large enough effect; inconclusive means small, poorly fitted or top-dose-only effect, or another doubt; inactive means no such curve, though single readings can be large; an effect the other way counts as inactive or inconclusive.

Key:
[1] = target: 3',5'-cyclic-AMP phosphodiesterase 4B (Homo sapiens) (UniProt Q07343); experiment: qHTS Assay for Inhibitors of PDE-IV (AID 607; active means well fitted activation curve with a large enough effect in the main read-out, with a control signal flat, not every such curve was filed as active; inconclusive means small, poorly fitted or top-dose-only effect, or effect the other way, or a change in a side signal); conditions: HEK293 ACTOne CNG channel cells, membrane potential fluorescence
UniProt Q07343, sequence (Q07343 whole entry, looked up): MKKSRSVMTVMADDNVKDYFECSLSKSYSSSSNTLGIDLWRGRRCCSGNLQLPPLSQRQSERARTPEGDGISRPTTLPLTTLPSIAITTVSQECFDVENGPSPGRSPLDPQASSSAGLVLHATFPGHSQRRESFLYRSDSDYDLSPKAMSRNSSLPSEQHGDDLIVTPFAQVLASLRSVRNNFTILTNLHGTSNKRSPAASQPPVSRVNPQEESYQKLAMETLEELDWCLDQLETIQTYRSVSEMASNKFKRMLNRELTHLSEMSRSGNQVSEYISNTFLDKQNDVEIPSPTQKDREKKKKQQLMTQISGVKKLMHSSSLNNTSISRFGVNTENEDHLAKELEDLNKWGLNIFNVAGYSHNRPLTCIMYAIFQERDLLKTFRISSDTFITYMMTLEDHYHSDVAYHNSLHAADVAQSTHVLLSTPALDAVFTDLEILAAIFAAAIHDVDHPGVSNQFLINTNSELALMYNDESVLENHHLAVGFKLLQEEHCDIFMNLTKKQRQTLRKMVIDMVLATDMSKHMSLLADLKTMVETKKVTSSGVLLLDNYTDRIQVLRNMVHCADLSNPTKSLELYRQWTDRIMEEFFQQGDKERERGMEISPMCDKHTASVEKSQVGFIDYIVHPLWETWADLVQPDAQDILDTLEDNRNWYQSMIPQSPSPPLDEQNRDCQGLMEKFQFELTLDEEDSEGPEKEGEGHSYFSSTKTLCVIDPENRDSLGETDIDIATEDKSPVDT
In short: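 ACTOne HEK293 cells carry a modified cAMP-gated CNG channel and express endogenous PDE4; plated 1000 cells/well, compounds up to 22.9 uM final. Membrane-potential dye fluorescence (ex 535/em 590) was read; parental cells received 10 uM forskolin + 100 uM RO 20-1724.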

[2] = target: Ubiquitin carboxyl-terminal hydrolase 1 (Homo sapiens) (UniProt O94782); experiment: Inhibitors of USP1/UAF1: Pilot qHTS (AID 504865);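 further: rhodamine fluorescence freed from ubiquitin-rhodamine substrate followed over time; nearly all actives have a fitted effect of over 35% in size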; on activity change, negative = inhibition: top concentration of the series differs between compounds
UniProt O94782, sequence (O94782 whole entry, looked up): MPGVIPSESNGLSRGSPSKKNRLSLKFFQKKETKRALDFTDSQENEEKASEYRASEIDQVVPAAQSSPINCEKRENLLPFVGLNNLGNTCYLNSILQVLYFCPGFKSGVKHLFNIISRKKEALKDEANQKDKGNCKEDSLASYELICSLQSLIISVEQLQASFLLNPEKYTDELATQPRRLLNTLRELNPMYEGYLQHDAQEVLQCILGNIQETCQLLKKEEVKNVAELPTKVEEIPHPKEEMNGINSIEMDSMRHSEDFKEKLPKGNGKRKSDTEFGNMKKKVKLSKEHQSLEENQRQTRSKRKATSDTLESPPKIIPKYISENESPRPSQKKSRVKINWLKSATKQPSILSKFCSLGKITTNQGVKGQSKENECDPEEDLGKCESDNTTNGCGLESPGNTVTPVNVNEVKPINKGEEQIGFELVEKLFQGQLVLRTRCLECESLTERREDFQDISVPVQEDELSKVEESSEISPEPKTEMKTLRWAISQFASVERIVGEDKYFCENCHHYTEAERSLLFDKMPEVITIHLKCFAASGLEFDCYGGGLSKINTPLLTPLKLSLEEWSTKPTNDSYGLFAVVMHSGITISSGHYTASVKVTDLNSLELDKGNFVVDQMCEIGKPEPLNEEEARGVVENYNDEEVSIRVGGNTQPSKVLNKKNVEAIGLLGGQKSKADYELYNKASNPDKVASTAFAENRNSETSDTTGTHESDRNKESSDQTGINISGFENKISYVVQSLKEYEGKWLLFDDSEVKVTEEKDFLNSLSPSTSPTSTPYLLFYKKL
In short: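 Enzyme-free wells gave the negative control, while test wells held 1nM USP1/UAF1 preincubated with compound for 15 min at room temperature. Ub-Rho at 150nM final started the reaction, and fluorescence at 480/540 nm was recorded kinetically.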

[3] = target: Mitogen-activated protein kinase 10 (Mus musculus) (UniProt Q61831); experiment: JNK3 AlphaScreen Assay (AID 530; active means well fitted curve in either direction with a large enough effect, not every such curve was filed as active; inconclusive means small, poorly fitted or top-dose-only effect, or another doubt;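 further: kinase came from lysate of stimulated human HepG2 cells; signal reports phosphorylation of biotinylated GST-cJun 1-79 at Ser73 with 10 µM ATP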); conditions: JNK3 lysate, c-Jun phosphorylation; activity change, negative = inhibition: at 57.1 µM (top of the series)
In short: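 JNK3 came from HepG2 lysates pre-activated with IL-1beta and TNF-alpha and phosphorylated biotinylated GST-cJun (1-79) at 10 uM ATP, pH 7.6, room temperature. Compounds were titrated. AlphaScreen signal used anti-phospho-cJun (Ser73) antibody.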

[4] = target: Cytochrome P450 2D6 (Homo sapiens) (UniProt P10635); experiment: qHTS Assay for Inhibitors and Substrates of Cytochrome P450 2D6 (AID 891);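 further: luciferin methyl ether substrate demethylated by CYP2D6 with NADPH regeneration; nearly all actives have a fitted effect of over 60% in size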
UniProt P10635, sequence (P10635 whole entry, looked up): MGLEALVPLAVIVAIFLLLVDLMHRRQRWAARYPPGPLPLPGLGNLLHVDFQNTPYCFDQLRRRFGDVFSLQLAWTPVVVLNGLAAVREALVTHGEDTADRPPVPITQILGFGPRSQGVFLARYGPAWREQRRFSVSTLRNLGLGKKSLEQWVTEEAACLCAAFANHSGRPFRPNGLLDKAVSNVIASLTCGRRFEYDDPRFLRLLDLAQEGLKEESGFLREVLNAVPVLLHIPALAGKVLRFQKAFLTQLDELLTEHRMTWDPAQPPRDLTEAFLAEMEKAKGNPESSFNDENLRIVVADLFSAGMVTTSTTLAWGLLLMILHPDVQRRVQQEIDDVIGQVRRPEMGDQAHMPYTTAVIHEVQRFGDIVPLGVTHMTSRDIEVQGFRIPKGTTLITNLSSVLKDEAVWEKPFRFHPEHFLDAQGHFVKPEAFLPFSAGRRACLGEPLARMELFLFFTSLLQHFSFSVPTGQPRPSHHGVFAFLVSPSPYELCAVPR
In short: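 Human CYP2D6 (5 nM) with 30 uM Luciferin-ME EGE (at Km) in 100 mM KPO4, compound preincubated 10 min, then NADPH regeneration system for 60 min at room temperature. Luciferin read by luminescence; normalized to 1.43 uM quinidine.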

[5] = target: Cytochrome P450 3A4 (Homo sapiens) (UniProt P08684); experiment: qHTS Assay for Inhibitors and Substrates of Cytochrome P450 3A4 (AID 884); conditions: recombinant CYP3A4, Luciferin-PPXE luminescence; activity change, negative = inhibition: at 57.1 µM (top of the series) unless noted; further: nearly all actives have a fitted effect of over 50% in size
UniProt P08684, sequence (P08684 whole entry, looked up): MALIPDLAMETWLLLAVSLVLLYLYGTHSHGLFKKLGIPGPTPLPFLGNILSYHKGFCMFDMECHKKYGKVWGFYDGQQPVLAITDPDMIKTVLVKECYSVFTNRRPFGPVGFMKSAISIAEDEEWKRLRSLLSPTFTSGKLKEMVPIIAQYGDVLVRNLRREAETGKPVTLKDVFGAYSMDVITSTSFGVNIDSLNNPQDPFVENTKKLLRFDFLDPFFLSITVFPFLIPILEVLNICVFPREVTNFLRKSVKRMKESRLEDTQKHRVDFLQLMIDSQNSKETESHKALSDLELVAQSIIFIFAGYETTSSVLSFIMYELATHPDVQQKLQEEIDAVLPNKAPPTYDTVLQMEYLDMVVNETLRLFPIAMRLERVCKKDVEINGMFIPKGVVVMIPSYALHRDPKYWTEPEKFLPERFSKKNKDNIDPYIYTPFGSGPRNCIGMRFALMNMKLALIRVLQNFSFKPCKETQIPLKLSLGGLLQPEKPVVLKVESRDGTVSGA
In short: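 20 nM human CYP3A4 with 25 uM Luciferin-PPXE (at KM) in 200 mM KPO4, preincubated 10 min with compound; NADPH regeneration started a 60 min RT reaction. Luciferin detected by luminescence, normalized to 57 uM ketoconazole as full inhibition.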

[6] = target: DNA dC->dU-editing enzyme APOBEC-3G (Homo sapiens) (UniProt Q9HC16); experiment: qHTS for inhibitors of Vif-A3G interactions: Validation (AID 588379)
UniProt Q9HC16, sequence (Q9HC16 whole entry, looked up): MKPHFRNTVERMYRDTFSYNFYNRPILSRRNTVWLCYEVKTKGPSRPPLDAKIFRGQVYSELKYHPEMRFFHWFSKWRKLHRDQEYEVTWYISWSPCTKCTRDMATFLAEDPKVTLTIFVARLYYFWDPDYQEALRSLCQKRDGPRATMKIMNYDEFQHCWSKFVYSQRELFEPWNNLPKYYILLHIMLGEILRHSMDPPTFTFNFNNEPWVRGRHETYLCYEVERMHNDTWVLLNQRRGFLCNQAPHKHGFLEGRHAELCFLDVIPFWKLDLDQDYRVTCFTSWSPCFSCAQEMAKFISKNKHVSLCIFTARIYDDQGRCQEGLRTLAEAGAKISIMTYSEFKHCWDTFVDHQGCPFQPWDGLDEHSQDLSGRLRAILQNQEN
In short: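 HeLa cells stably expressing Vif and A3G-eYFP, 700 cells/well, incubated overnight at 37 deg C, then exposed to compound overnight at 37 deg C. Inhibition of Vif-mediated degradation read as increased yellow fluorescence (Ex 488/Em 500-530) by laser-scanning cytometry.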

[7] = target: ATPase family AAA domain-containing protein 5 (Homo sapiens) (UniProt Q96QE3); experiment: HTS assay for small molecules that inhibit ELG1-dependent DNA repair in human embryonic kidney (HEK293T) cells expressing luciferase-tagged ELG1: Hit Confirmation (AID 624248); further: nearly all actives have a fitted effect of over 55% in size
UniProt Q96QE3, sequence (Q96QE3 whole entry, looked up, the tested form may be a part): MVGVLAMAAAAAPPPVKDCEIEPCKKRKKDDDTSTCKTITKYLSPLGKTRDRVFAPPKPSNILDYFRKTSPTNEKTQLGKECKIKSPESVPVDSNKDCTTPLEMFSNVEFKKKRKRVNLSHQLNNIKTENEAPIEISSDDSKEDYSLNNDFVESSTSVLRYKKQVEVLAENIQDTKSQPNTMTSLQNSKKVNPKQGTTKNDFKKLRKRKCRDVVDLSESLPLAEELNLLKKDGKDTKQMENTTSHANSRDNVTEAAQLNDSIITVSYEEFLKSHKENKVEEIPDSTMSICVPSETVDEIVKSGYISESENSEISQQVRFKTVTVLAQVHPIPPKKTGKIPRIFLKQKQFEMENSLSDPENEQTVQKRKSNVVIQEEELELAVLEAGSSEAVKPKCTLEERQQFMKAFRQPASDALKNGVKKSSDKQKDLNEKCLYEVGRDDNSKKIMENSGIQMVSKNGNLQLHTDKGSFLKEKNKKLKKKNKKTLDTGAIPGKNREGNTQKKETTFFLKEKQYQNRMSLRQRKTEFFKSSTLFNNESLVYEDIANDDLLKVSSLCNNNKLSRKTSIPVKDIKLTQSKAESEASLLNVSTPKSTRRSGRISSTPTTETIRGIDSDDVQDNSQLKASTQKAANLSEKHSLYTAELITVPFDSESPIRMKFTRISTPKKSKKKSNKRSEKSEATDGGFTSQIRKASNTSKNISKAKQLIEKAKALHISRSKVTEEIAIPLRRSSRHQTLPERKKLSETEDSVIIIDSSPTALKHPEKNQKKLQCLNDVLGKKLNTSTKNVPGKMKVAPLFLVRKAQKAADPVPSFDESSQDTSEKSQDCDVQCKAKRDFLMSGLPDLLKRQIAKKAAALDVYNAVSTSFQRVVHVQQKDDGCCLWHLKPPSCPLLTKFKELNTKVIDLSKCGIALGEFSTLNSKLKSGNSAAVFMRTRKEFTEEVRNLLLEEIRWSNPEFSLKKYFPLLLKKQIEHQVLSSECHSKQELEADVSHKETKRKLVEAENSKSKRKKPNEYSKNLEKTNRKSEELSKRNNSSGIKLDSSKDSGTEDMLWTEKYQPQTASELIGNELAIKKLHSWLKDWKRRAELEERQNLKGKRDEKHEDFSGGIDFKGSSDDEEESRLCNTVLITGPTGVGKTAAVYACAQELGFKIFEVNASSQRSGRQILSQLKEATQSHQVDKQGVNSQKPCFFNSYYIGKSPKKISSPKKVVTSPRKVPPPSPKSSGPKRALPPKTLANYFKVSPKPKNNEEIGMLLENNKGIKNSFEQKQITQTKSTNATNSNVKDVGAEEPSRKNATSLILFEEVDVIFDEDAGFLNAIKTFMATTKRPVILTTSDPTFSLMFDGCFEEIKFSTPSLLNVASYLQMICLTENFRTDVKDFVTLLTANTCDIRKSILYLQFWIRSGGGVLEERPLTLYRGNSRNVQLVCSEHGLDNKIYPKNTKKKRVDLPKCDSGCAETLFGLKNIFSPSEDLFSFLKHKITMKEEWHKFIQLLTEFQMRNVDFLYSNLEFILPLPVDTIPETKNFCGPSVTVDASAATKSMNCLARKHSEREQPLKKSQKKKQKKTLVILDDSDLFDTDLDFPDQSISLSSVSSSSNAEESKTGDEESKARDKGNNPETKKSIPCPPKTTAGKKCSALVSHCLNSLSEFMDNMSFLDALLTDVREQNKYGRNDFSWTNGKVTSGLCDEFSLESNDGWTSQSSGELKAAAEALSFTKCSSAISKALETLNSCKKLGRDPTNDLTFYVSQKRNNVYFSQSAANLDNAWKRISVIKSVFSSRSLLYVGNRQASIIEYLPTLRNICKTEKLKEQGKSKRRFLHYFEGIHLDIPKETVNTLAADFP
In short: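 Cells (2,000/well) received 5-Fluorouridine plus pin-transferred compound or DMSO and were incubated 16 hr at 37 °C, 5% CO2. Luciferase activity was read by ONE-Glo luminescence after 30 min at room temperature; inhibitors suppress the signal.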

[8] = target: ATPase family AAA domain-containing protein 5 (Homo sapiens) (UniProt Q96QE3); experiment: qHTS screen for small molecules that inhibit ELG1-dependent DNA repair in human embryonic kidney (HEK293T) cells expressing luciferase-tagged ELG1: Hit Confirmation using MMS Stimulated ELG1 (AID 624249); further: nearly all actives have a fitted effect of over 60% in size
In short: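 Seed HEK293T ELG1-luc cells (2,000/well). Add compounds at ~5 h, then MMS to 10 µM final. Incubate 16 h. Measure luciferase using Amplight.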

[9] = qHTS screen for small molecules that inhibit ELG1-dependent DNA repair: Hit Confirmation with MMS Viability (AID 624251); further: nearly all actives have a fitted effect of over 60% in size
In short: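 ELG1-luc HEK293T cells were plated, then about 5 h later received compounds by pin transfer plus MMS at 10 µM final. Viability was read by CellTiter-Glo luminescence after 16 h.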

[10] = qHTS Assay for Identification of Small Molecule Agonists for Hypoxia Response Element Signaling Pathway (AID 914; active means well fitted activation curve with a large enough effect in the signal ratio, with a control signal flat, not every such curve was filed as active; inconclusive means small, poorly fitted or top-dose-only effect, or effect the other way, or a change in a side signal; the % refers to the signal ratio); conditions: ME-180 (cervical carcinoma) HRE-bla reporter, beta-lactamase ratio, CoCl2, 17 h; activation: stronger effect = higher value
In short: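 Compounds in a titration series were added to ME-180 reporter cells alongside an EC50 level of CoCl2. After 17 hours, beta-lactamase activity was read as the 460nm/530nm emission ratio of CCF4, giving AC50 values.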
Potency means the concentration at half of the fitted maximal effect; tags describe the fitted curve by direction and shape or compound fluorescence and quenching.

With `CS(=O)(=O)c1ccc(-c2cc(Br)sc2-c2ccc(F)cc2)cc1` the Potency [1] was inconclusive: 15.1 µM [rising, partial curve] and the Potency [2] was inconclusive: 35.5 µM [inhibitor, partial curve, poor fit].
In the case of `CCCCCCCCCCCCC/C=C\[C@@H](O)[C@H](CO)NC(C)=O`, the Potency [3] is reported as “inactive”, the Potency [4] is reported as inconclusive: 3.98 µM [inhibitor, full curve] and the Potency [2] is reported as inconclusive: 17.8 µM [inhibitor, full curve].
With `CCCCCC1C(=O)CCC1CC(=O)OC` (stereo not given) the Potency [5] was “inactive” and the Potency [2] was “inactive”.
With `CCCN(C/C=C\I)[C@@H]1CCc2cccc(O)c2C1` the Potency [1] was inconclusive: 19 µM [activator, partial curve, poor fit] and the Potency [2] was inconclusive: 44.7 µM [inhibitor, partial curve, poor fit].
In the case of `Cc1cccc(CNc2ccnc(-c3cccnc3)n2)c1`, the Potency [1] is reported as “inactive”, the Potency [5] is reported as active: 0.501 µM and the Potency [2] is reported as inconclusive: 35.5 µM [inhibitor, partial curve, poor fit].
For `CC(C)OC(=O)c1cc2c(OC[C@@H](O)CNC(C)(C)C)cccc2[nH]1`, the Potency [1] was inconclusive: 15.1 µM [activator, partial curve] and the Potency [2] was inconclusive: 44.7 µM [inhibitor, partial curve, poor fit].
With `COc1ccc(-c2nc3cnc(N(C)C)nc3n(-c3ccccc3)c2=O)cc1` the Potency [1] was inconclusive: 12.6 µM [activator, single point] and the Potency [2] was “inactive”.
In the case of `Cn1c(-c2nc(-c3ccccc3)cs2)nc2ccccc21`, the Potency [2] is reported as inconclusive: 20 µM [inhibitor, full curve] and the Potency [6] is reported as inconclusive: 18.8 µM [inhibitor, single point].
With `N#Cc1cc2[nH]c(=O)c(=O)[nH]c2cc1[N+](=O)[O-]` the Potency [1] was inconclusive: 15.1 µM [inhibitor, single point] and the Potency [2] was inconclusive: 63.1 µM [inhibitor, partial curve, poor fit].
In the case of `CC(=O)[C@H](CC(C)C)NC(=O)[C@@H](CC(C)C)NC(=O)[C@H](CC(C)C)NC(=O)OCc1ccccc1`, the Potency [2] is reported as inconclusive: 50.1 µM [inhibitor, partial curve, poor fit] and the Potency [6] is reported as active: 0.335 µM.
In the case of `COc1cc2c(cc1OC)C1C(=O)c3c(O)cc4c(c3OC1CO2)C=CC(C)(C)O4` (stereo not given), the Potency [2] is reported as inconclusive: 44.7 µM [inhibitor, partial curve], the Potency [7] is reported as inconclusive: 35.4 µM [inhibitor, single point] and the Potency [8] is reported as active: 0.397 µM. For the same compound, the Potency [9] was active: 0.397 µM.
With `COC(=O)c1ccccc1NC(=O)c1ccc(F)cc1` the Potency [1] was inconclusive: 19 µM [rising, partial curve, poor fit] and the Potency [2] was inconclusive: 28.2 µM [inhibitor, partial curve].
In the case of `C[C@H](O)CO[C@H]1[C@H]2O[C@H]3[C@H](O)[C@@H](O)[C@@H](O[C@H]4[C@H](O)[C@@H](O)[C@@H](O[C@H]5[C@H](O)[C@@H](O)[C@@H](O[C@H]6[C@H](O)[C@@H](OC[C@H](C)O)[C@@H](O[C@H]7[C@H](O)[C@@H](OC[C@H](C)O)[C@@H](O[C@H]8[C@H](O)[C@@H](O)[C@@H](O[C@@H]([C@@H]1O)[C@@H](CO)O2)O[C@@H]8CO)O[C@@H]7CO)O[C@@H]6CO)O[C@@H]5CO)O[C@@H]4CO)O[C@@H]3CO`, the Potency [1] is reported as inconclusive: 19 µM [inhibitor, single point] and the Potency [2] is reported as “inactive”.
In the case of `O=C(O)c1cc2ccccc2c(Cc2cc3ccccc3c(C(=O)O)c2O)c1O` (tested in a mixture with another compound), the Potency [1] is reported as “inactive”, the Potency [10] is reported as inconclusive: 12.6 µM [inhibitor, single point] and the Potency [2] is reported as inconclusive: 35.5 µM [inhibitor, partial curve].
In the case of `c1cc2c(cc1C1CCCCC1)c1c3n2CCN[C@H]3CCC1`, the Potency [1] is reported as inconclusive: 19 µM [activator, partial curve, poor fit] and the Potency [2] is reported as inconclusive: 56.2 µM [inhibitor, partial curve].
With `COCCn1c(=O)c(-c2ccc(F)cc2)nc2cnc(OC)nc21` the Potency [1] was “inactive” and the Potency [2] was “inactive”.
With `COc1cccc(C=NC=Nc2cccc(OC)c2)c1` the Potency [3] was inconclusive: 39.8 µM [activator, partial curve], the Potency [1] was inconclusive: 19 µM [inhibitor, single point] and the Potency [2] was inconclusive: 44.7 µM [inhibitor, partial curve, poor fit].
